{"source": "paper PMC4336329", "about": "(PLoS ONE, 2015)", "note": "The campaign covered roughly 310,000 compounds. About 14,000 (4.5%) showed an effect of 50% or more. Effects have a minus sign here. The list shows a part of the results.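 Further: peak tail current of the secondary pulse compared with the same well before compound.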", "data": [{"target": "human ether-à-go-go-related gene (hERG) potassium channel (human, UniProt Q12809)", "sequence (Q12809 whole entry, looked up)": "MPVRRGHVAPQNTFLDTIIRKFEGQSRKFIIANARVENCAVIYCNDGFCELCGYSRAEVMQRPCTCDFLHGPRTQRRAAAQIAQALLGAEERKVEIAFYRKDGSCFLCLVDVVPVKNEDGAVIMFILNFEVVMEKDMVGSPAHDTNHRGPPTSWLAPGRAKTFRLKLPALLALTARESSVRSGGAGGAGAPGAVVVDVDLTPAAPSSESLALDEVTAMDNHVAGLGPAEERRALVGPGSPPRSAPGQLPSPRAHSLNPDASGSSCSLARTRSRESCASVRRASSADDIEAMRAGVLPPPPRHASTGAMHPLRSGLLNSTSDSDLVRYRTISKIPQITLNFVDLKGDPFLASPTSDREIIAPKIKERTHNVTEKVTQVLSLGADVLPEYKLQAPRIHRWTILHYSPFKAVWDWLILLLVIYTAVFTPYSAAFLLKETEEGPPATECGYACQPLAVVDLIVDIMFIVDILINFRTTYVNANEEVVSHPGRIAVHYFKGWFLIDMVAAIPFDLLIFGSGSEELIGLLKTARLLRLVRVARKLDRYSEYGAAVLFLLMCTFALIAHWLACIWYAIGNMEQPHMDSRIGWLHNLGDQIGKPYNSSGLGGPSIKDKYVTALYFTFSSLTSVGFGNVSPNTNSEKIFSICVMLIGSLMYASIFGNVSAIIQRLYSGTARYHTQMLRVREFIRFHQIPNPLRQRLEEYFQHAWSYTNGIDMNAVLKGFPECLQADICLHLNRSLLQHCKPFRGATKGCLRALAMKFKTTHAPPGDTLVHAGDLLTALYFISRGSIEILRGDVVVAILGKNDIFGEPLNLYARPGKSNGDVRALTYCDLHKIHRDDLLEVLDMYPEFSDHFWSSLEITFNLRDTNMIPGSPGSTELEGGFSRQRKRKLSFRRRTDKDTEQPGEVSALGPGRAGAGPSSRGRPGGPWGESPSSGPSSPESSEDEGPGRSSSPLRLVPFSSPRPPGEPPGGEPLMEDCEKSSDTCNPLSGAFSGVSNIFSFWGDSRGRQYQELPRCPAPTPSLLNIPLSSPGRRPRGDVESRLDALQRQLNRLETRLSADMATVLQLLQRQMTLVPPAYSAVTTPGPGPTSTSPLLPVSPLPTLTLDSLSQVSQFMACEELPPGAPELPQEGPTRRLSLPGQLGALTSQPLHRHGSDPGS", "experiment": "primary screen, population patch clamp on CHO cells stably expressing hERG", "units": {"hERG current change (%, negative = inhibition) at 10uM": "%"}, "values": [{"compound": "CCNCc1ccc(OCc2ccccc2F)c(OC)c1.Cl", "hERG current change (%, negative = inhibition) at 10uM": -11}, {"compound": "CC(=O)N(CCc1cccc(C)c1)Cc1cc2cc(C)ccc2[nH]c1=O", "hERG current change (%, negative = inhibition) at 10uM": -5.71}, {"compound": "CCCNC(=O)CN(C)CC(=O)Nc1ccccc1C#N", "hERG current change (%, negative = inhibition) at 10uM": 21.3}, {"compound": "CCN(CC)S(=O)(=O)c1cc(NS(=O)(=O)c2ccccc2)ccc1C", "hERG current change (%, negative = inhibition) at 10uM": -3.17}, {"compound": "COCCNC(=O)Cn1cc(C(=O)c2ccco2)c2ccccc21", "hERG current change (%, negative = inhibition) at 10uM": 0.981}, {"compound": "O=[N+]([O-])c1ccc(S(=O)(=O)Nc2nnc(C(F)(F)F)s2)cc1", "hERG current change (%, negative = inhibition) at 10uM": 3.45}, {"compound": "O=C1CC(NCCN2CCOCC2)C(=O)N1Cc1ccc(N2CCCC2=O)cc1", "note": "(centres unmarked)", "hERG current change (%, negative = inhibition) at 10uM": 17.7}, {"compound": "CC(=O)c1cc2c(cc1NC(=O)CN1CCCCCCC1)OCO2.O=C(O)C(=O)O", "hERG current change (%, negative = inhibition) at 10uM": 4.89}, {"compound": "CN1CCN(C2CCCCC2NS(=O)(=O)c2ccc(Cl)cc2)CC1", "note": "(centres unmarked)", "hERG current change (%, negative = inhibition) at 10uM": -29.8}, {"compound": "CC(OC(=O)CCN=C1NS(=O)(=O)c2ccccc21)C(=O)NCc1ccccc1", "note": "(centres unmarked)", "hERG current change (%, negative = inhibition) at 10uM": 8.04}, {"compound": "O=C(N/N=C(\\c1ccccc1)c1ccccn1)c1ccccc1Cl", "hERG current change (%, negative = inhibition) at 10uM": -2.4}, {"compound": "CC1CCc2nc(NC(=O)c3ccc(S(=O)(=O)N4CCCc5ccccc54)cc3)sc2C1", "note": "(centres unmarked)", "hERG current change (%, negative = inhibition) at 10uM": -6.64}, {"compound": "Cc1ccc(-n2ccc(=O)c(-c3ccnc(SCc4cccc(Cl)c4)n3)n2)cc1", "hERG current change (%, negative = inhibition) at 10uM": 11.6}, {"compound": "Cc1csc2cc(-c3cccc([N+](=O)[O-])c3)c(-c3cccc([N+](=O)[O-])c3)c[n+]12.[Br-]", "hERG current change (%, negative = inhibition) at 10uM": 7.37}, {"compound": "O=C(c1ccc(CNS(=O)(=O)c2ccccc2)cc1)N1CCC2(CC1)OCCO2", "hERG current change (%, negative = inhibition) at 10uM": -4.16}, {"compound": "O=C(O)CCSc1nnc(COc2ccc([N+](=O)[O-])cc2)n1-c1ccccc1", "hERG current change (%, negative = inhibition) at 10uM": 22.8}, {"compound": "CN1CCN(C(=O)c2cc(Br)cn2C)CC1", "hERG current change (%, negative = inhibition) at 10uM": 13}, {"compound": "O=C(CN1C(=O)CCC1=O)Nc1nc(-c2ccc(Cl)s2)cs1", "hERG current change (%, negative = inhibition) at 10uM": -5.39}, {"compound": "COc1ccc(C2C(C(=O)N3CCOCC3)c3ccccc3C(=O)N2c2ccc(OC)cc2)cc1", "note": "(centres unmarked)", "hERG current change (%, negative = inhibition) at 10uM": -12.8}, {"compound": "COc1ccc(S(=O)(=O)N2CCN(C(=O)c3c(C)nn(-c4ccccc4)c3C)CC2)cc1", "hERG current change (%, negative = inhibition) at 10uM": -35.3}, {"compound": "COc1ccc(-n2nnnc2SCc2nc3ccccc3s2)cc1", "hERG current change (%, negative = inhibition) at 10uM": -5.94}, {"compound": "Cc1c(NC(=O)CN(c2ccccc2)S(=O)(=O)c2ccc(F)cc2)c(=O)n(-c2ccccc2)n1C", "hERG current change (%, negative = inhibition) at 10uM": -46.6}, {"compound": "CC1(C)CC(=O)C=C(c2cccc(CO)c2)C1", "hERG current change (%, negative = inhibition) at 10uM": 18.5}, {"compound": "CC(C)OC(=O)c1cn(-c2ccccc2)nc1-c1ccc2c(c1)OCCO2", "hERG current change (%, negative = inhibition) at 10uM": 13.4}, {"compound": "Cn1nc2c(c1C(=O)O)CCCC2", "hERG current change (%, negative = inhibition) at 10uM": -6.21}, {"compound": "COc1ccc(CN(C)C(=O)CCN(c2ccccc2)S(=O)(=O)c2ccc(C)cc2)c(OC)c1", "hERG current change (%, negative = inhibition) at 10uM": -41.5}, {"compound": "S=C(NCc1ccco1)Nc1ccc(Br)cc1Cl", "hERG current change (%, negative = inhibition) at 10uM": 0.089}, {"compound": "CCN(CC)c1ccc(C(=O)N/N=C/c2ccc(OC)cc2OC)cc1", "hERG current change (%, negative = inhibition) at 10uM": 20}, {"compound": "COc1cccc(C(=O)N(CN2CCCC2=O)c2ccccc2OC)c1", "hERG current change (%, negative = inhibition) at 10uM": -8.24}, {"compound": "CCOC(=O)c1c(/N=C/c2c(O)n(-c3cccc(C)c3)c(=O)[nH]c2=O)sc2c1CCCC2", "hERG current change (%, negative = inhibition) at 10uM": 13.2}, {"compound": "O=c1[nH]c(CSc2nnc3ccccn23)nc2cc(C(F)(F)F)ccc12", "hERG current change (%, negative = inhibition) at 10uM": -7.94}, {"compound": "CC1CC(NC(=O)C2(C)CC2(Cl)Cl)CC(C)(C)C1", "note": "(centres unmarked)", "hERG current change (%, negative = inhibition) at 10uM": 8.78}, {"compound": "Cc1ccc(S(=O)(=O)NC(C)(C)CSc2nncn2C)cc1", "hERG current change (%, negative = inhibition) at 10uM": -4.79}, {"compound": "COc1ccc(S(=O)(=O)Nc2nncs2)cc1", "hERG current change (%, negative = inhibition) at 10uM": 18}, {"compound": "COc1ccc(OC)c(-c2nc(C(=O)NCCCN3CCOCC3)cc3c2[nH]c2ccccc23)c1", "hERG current change (%, negative = inhibition) at 10uM": -65.7}, {"compound": "COc1cc2cc(C)c(SCC(=O)N3CCOCC3)nc2cc1OC", "hERG current change (%, negative = inhibition) at 10uM": -1.12}, {"compound": "CCN(CC)CCCNC(=O)C(C)Sc1nc(-c2ccccc2)cc(C(F)(F)F)n1", "note": "(centres unmarked)", "hERG current change (%, negative = inhibition) at 10uM": -48.2}, {"compound": "O=C(/C=C/Nc1ccc(OC(F)(F)F)cc1)C(F)(F)F", "hERG current change (%, negative = inhibition) at 10uM": -14.2}, {"compound": "COc1ccc(N2C(=O)C(Cl)=C(Nc3ccc(OC)cc3OC)C2=O)cc1", "hERG current change (%, negative = inhibition) at 10uM": 18.5}, {"compound": "Cc1nnc(N/N=C/c2ccccn2)[nH]c1=O", "hERG current change (%, negative = inhibition) at 10uM": 14.1}, {"compound": "CCCCc1cc(=O)oc2cc(OCC(=O)NC(Cc3c[nH]c4ccc(O)cc34)C(=O)O)ccc12", "note": "(centres unmarked)", "hERG current change (%, negative = inhibition) at 10uM": 3.86}, {"compound": "CCOc1ccc2nc(NC(=O)C(CC)Sc3nc(C)cc(=O)[nH]3)sc2c1", "note": "(centres unmarked)", "hERG current change (%, negative = inhibition) at 10uM": 12.4}, {"compound": "c1ccc(CN2CCc3nc4ccccc4cc3C2)cc1", "hERG current change (%, negative = inhibition) at 10uM": -4.62}, {"compound": "COc1ccccc1CC1(C)NC(=O)N(CC(=O)N2CCc3ccccc3C2)C1=O", "note": "(centres unmarked)", "hERG current change (%, negative = inhibition) at 10uM": -24.4}]}]}
